# Experimental data from article PMC4336329 (PLoS ONE, 2015).
# The campaign covered roughly 310,000 compounds. About 14,000 (4.5%) showed an effect of 50% or more. The effect is printed as a negative number. The list shows a part of the results.
# Target: human ether-à-go-go-related gene (hERG) potassium channel (human, UniProt Q12809)
# Assay: primary screen, population patch clamp on CHO cells stably expressing hERG
# 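Further: peak tail current of the secondary pulse compared with the same well before compound.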
# Chain of human ether-à-go-go-related gene (hERG) potassium channel (Q12809 whole entry, looked up): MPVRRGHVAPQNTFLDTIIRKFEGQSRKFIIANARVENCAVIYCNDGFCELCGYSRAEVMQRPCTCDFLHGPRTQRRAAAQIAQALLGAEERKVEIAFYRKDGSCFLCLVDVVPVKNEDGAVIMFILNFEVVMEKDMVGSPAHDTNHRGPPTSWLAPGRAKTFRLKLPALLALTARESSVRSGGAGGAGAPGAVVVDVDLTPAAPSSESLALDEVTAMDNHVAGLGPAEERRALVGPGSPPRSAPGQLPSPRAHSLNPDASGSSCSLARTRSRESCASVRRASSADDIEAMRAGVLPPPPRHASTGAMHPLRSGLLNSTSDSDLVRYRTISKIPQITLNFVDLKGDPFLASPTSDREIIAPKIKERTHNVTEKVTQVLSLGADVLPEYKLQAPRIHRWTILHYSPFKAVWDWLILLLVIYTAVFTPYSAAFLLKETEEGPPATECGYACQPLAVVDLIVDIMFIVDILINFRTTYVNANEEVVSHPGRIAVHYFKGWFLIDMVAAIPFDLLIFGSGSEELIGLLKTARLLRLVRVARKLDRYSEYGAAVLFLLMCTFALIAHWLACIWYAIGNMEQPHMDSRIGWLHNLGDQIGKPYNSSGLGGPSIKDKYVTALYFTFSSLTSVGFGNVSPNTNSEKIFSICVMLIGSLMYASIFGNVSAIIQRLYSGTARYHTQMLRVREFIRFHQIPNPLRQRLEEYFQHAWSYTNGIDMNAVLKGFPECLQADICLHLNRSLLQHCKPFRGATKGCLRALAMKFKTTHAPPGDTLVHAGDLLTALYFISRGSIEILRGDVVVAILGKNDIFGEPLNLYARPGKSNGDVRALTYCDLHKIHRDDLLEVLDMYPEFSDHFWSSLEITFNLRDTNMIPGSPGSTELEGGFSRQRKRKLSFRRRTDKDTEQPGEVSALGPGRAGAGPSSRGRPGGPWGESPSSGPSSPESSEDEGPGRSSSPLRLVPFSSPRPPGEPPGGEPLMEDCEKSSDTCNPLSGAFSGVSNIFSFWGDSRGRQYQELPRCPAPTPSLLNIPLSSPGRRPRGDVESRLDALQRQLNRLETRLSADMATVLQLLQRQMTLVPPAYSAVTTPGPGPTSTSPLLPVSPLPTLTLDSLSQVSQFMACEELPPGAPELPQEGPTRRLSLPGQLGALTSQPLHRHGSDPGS
row,SMILES,"hERG current change (%, negative = inhibition) at 10uM [%]"
1,Cn1c(=O)n(C)c2cc(NC(=O)c3ccc(F)cc3)c(Br)cc21,7.81
2,O=C(NCCN1CCOCC1)c1cc(-c2ccc(Cl)cc2Cl)on1,-10.2
3,Cc1cc(C)c(S(=O)(=O)N2CCCCC2CCNC(=O)C(=O)NCc2ccccn2)c(C)c1 (stereo not drawn),-9.72
4,COC(=O)CN(C#N)c1nc(NCc2ccccc2)nc(OC)n1,-1.33
5,Nc1ccnn1Cc1cccnc1,2.63
6,COCc1cc(CN2CCCC2)c(O)c2ncccc12,-10.4
7,COC(=O)c1ccc(S(=O)(=O)NCc2ccco2)o1,6.1
8,COc1ccc(C(NC(C)=O)c2c(O)ccc3ccccc23)cc1OC (stereo not drawn),-0.144
9,CCn1nc(C)c(NC(=O)c2cc(Br)ccc2Cl)c1C,-0.748
10,CC(C)C(=O)N1c2ccccc2NC2=C(C(=O)CCC2)C1c1ccc(N(C)C)cc1 (stereo not drawn),-2.84
11,CNC(=O)Nc1ccc(C2SCCS2)cc1,7.02
12,Cc1cccc(C(=O)O/N=C(\N)c2ccc(Br)cc2)c1,11.6
13,CC(=O)c1ccc2noc(-c3ccc(C)cc3)c2c1,-0.176
14,CC1=C(C(=O)OC(C)C)C(c2cncc(-c3ccc(F)cc3)c2)C(C#N)=C(N)O1 (stereo not drawn),-28.6
15,COc1cc(-c2nc3oc4ccccc4c(=O)c3c(=O)n2Cc2ccco2)cc(OC)c1OC,-1.9
16,CC(=O)Nc1ccc(S(=O)(=O)Nc2cccc(-c3nc4cc(C)ccc4o3)c2)cc1,3.15
17,COc1ccccc1NS(=O)(=O)c1cc([N+](=O)[O-])ccc1N/N=C/c1c(C)[nH]c2ccccc12,14.8
18,Cc1ccc(NC(=O)Cc2nn(C)c(=O)c3ccccc23)cc1F,9.52
19,COc1cc(OC)cc(C(=O)NNC(=O)c2ccccn2)c1,2.16

row,SMILES,"hERG current change (%, negative = inhibition) at 10uM [%]"
1,Cc1cnccc1CN(C)Cc1cn(C)nc1-c1ccc(Oc2ccccc2)cc1,-27.4
2,CN1C(=S)SC2CS(=O)(=O)CC21 (stereo not drawn),7.75
3,NC(=O)C1CCN(C(=O)c2cccc3ccccc23)CC1,11.1
4,CCOC(=O)C1CCCN(Cc2ccccc2OCC)C1 (stereo not drawn),-2.92
5,Cc1ccc(S(=O)(=O)N2CCCC2C(=O)Nc2nc3c(s2)CCCC3)cc1 (stereo not drawn),-10.9
6,CC1=NS(=O)(=O)c2cc(Cl)ccc2N1,-2.63
7,CCOc1ccc(CN2CCSCC2)cc1,2.36
8,CCn1c(SCc2nc3ccccc3c(=O)[nH]2)nnc1-c1cccnc1,-16.6
9,Br.N=C(N)SCc1nc2ccccc2c(=O)n1-c1ccccc1Cl,-21.9
10,CC(=O)C1=C(C)N(Cc2ccccc2)C(=O)N[C@H]1c1cccs1,2.42
11,O=C(O)C1CC=CCC1C(=O)Nc1cccnc1 (stereo not drawn),10.5
12,Cc1cc(=O)[nH]c2c(C)cc(S(=O)(=O)Nc3ccc(O)cc3)cc12,5.1
13,COc1ccc(S(=O)(=O)Cc2ccc(C(=O)N3CC(C)CC(C)C3)o2)cc1 (stereo not drawn),-14.2
14,COc1cc(C)c(C)cc1S(=O)(=O)NC1CC(C)(C)NC(C)(C)C1,2.92
15,CCC(C(=O)Nc1ccc(C(=O)N2CCCC2)cc1)c1ccccc1 (stereo not drawn),-1.42
16,COc1ccc(-c2csc(N3CCN(c4cc(C)nc5ccccc45)CC3)n2)cc1OC,-48.9
17,COc1ccccc1C(=O)Nc1cc2cc(Cl)ccc2oc1=O,-1.76
18,CN(CCO)C(=O)CCC(=O)Nc1ccc(S(N)(=O)=O)cc1,-11.4
19,C=CCN(CC=C)S(=O)(=O)c1ccc(NC(=S)NC(=O)/C=C/c2ccc(C)cc2)cc1,6.12

row,SMILES,"hERG current change (%, negative = inhibition) at 10uM [%]"
1,CCC(C)(C)n1nnnc1C(c1cc2cc(C)cc(C)c2[nH]c1=O)N1CCCC1 (stereo not drawn),-8.71
2,CC(C)CC(NS(=O)(=O)c1ccccc1)C(=O)O (stereo not drawn),1.59
3,O=C1CSCN1c1ccc(Cl)cc1,5.84
4,O=c1c2ccccc2[nH]c(=S)n1Cc1cccnc1,12
5,CCCCCOc1ccc(CSc2n[nH]c(C)n2)cc1,14.9
6,CNC(=O)C1CC(=O)N(CCCc2ccccc2)C(=Nc2ccccc2)S1 (stereo not drawn),-5.47
7,O=C(CC(Cc1ccccc1)C(=O)O)NCCc1ccc2c(c1)OCO2 (stereo not drawn),-16.3
8,O=C(Cc1ccccc1)N[C@H](c1ccccc1)P(=O)(O)CO,8.47
9,COc1ccc(Cl)cc1NC(=O)Cn1c(=O)n2nc(C)nc2c2ccccc21,-8.07
10,COc1ccccc1C1C(C#N)=C(N)N(N(C)C)C2=C1C(=O)CC(C)(C)C2 (stereo not drawn),10.7
11,CCOc1ccc(NC(=O)CSCC(=O)O)cc1,1.8
12,O=C(CSc1nc2ccccc2c(=O)n1Cc1ccco1)NCCN1C(=O)CSC1=O,-61.4
13,CCOC(=O)[C@H]1[C@H]2COc3ccc(C)cc3[C@@H]2N2C(=O)c3ccc(C)cc3NC(=O)[C@@]12C,3.7
14,CC(=O)c1cccc(NC(=O)c2ccc(N(Cc3ccc(C)cc3)S(C)(=O)=O)cc2)c1,-10.1
15,CC(=O)c1ccc(S(=O)(=O)N2CCN(CCOc3ccc(Br)cc3)CC2)cc1,-31.4
16,CSCC(=O)N1CCCC(N2CCN(c3cccc(C(F)(F)F)c3)CC2)C1 (stereo not drawn),-48.1
17,O=C(Oc1ccc(-c2cnc3ccccc3n2)cc1)c1cc([N+](=O)[O-])ccc1Cl,9.37
18,Cc1cnc(=O)[nH]c1SCc1cccc([N+](=O)[O-])c1,2.35
19,Oc1cc(O)cc(/C=C/c2ccc(O)c(O)c2)c1,-0.655
